# In PubChem BioAssay AID686970 (National Center for Advancing Translational Sciences (NCATS), 2013):
# About 6,000 (1.7%) of roughly 360,000 compounds were called active. Inconclusive results, whose numbers are uncertain, are shown with a selection of clear calls. Calls come from the whole dose curve; as a rule, active = well fitted cell-killing curve with a large enough effect; inconclusive = small, poorly fitted or top-dose-only effect, or effect the other way; inactive = flat fitted curve, though single readings scatter. Potencies of inconclusive entries are left out as doubtful fits.
# Assay: qHTS for induction of synthetic lethality in tumor cells producing 2HG: qHTS for the HT-1080-NT fibrosarcoma cell line;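 note: NT is the 2HG producing partner of a matched IDH1 knockdown line; nearly all actives have a fitted effect of over 55% in size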;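 for activity, negative = less viability: 0% = DMSO-treated cells and -100% = media-only wells without cells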
# Conditions: HT-1080-NT fibrosarcoma viability, CellTiter-Glo ATP luminescence, 48 h; activity, negative = less viability: at 46.1 µM (top of the series) unless noted
# Procedure, shortened: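 HT-1080-NT; 750 cells/well; 5% FBS RPMI; 48 h compound, 37 degrees C; CellTiter-Glo luminescence; curve fitting and curve-class assignment.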
# Potency is the fitted concentration of half-maximal effect; tags give direction and shape of the fitted curve.
SMILES,Potency,"activity, negative = less viability"
Cc1ccc(C=NNC(=O)c2cc(-c3cccnc3)nc3ccccc23)o1,"inconclusive [cytotoxic, full curve]",–
CC(=O)c1ccc(NC(=O)CO/N=C(\C)c2cccs2)cc1,"inconclusive [cytotoxic, single point]",–
O=c1c2oc3ccccc3c2ncn1Cc1ccc(Cl)cc1,inactive,–
Cc1ccc(NC(=O)c2cccc(S(=O)(=O)N3CCN(c4ccc(F)cc4)CC3)c2)nc1,"inconclusive [cytotoxic, single point]",–
Cc1nc(C(N)=O)c(N)n1CCc1ccccc1,inactive,–
CCOC(=O)[C@]12CCCC=C1N(Cc1cccc3ccccc13)C(=O)[C@H](CC(=O)NCc1ccc(C)o1)C2,"inconclusive [cytotoxic, single point]",–
CCOC(=O)c1csc(NC(=O)c2ccc(OC)c(OC)c2)n1,"inconclusive [cytotoxic, single point]",–
CCCCn1nnnc1C(c1ccccc1)N1CCCN(Cc2ccc(F)cc2)CC1 (stereo unspecified),"inconclusive [cytotoxic, single point]",–
C(=C\c1ccccc1)/CN1CCN(C(c2ccccc2)c2nnnn2Cc2ccccc2)CC1 (stereo unspecified),"inconclusive [cytotoxic, single point]",–
Cc1ccc(NC(=O)CSc2ncnc3ccccc23)cc1S(=O)(=O)N1CCOCC1,"inconclusive [cytotoxic, full curve, poor fit]",–
O=C(Cc1ccccc1F)NC1CCCc2ccccc21 (stereo unspecified),"inconclusive [rising, partial curve]",–
O=C1c2cccc3c(Cl)ccc(c23)C(=O)N1O,active: 7.94 µM,–
CCCCNC(=O)C[C@@H]1C[C@@]2(C(=O)OCC)CCCC=C2N(CCC2=CCCCC2)C1=O,"inconclusive [cytotoxic, single point]",–
CCCc1ccc(C(=O)NNc2ccc(F)cc2)cc1,active: 4.11 µM,–
CNc1cncc(-c2cccc(C(=O)NCCN(C)C)c2)n1,–,inconclusive: 34.3%
COc1ccc(-c2ccnc(SCC(=O)Nc3ccccn3)n2)cc1,inactive,–
CCOC(=O)c1c(C)n(C)c2cc(-c3ccc(C)cc3)c(O)cc12,inactive,–
COc1ccc(CCNC(=O)COc2ccc3c(C)cc(=O)oc3c2)cc1OC,"inconclusive [cytotoxic, single point]",–
COc1ccc(C2=Nn3c(nnc3-c3ccncc3)SC2)cc1OC,"inconclusive [cytotoxic, single point]",–
CCOc1ccc2[nH]c3c(NCCC(C)C)ncnc3c2c1,"inconclusive [cytotoxic, single point]",–
Cc1nnc(SCC(=O)Nc2sc3c(c2C#N)CCCCC3)n1N,inactive,–
Cc1cc(C(=O)N/N=C/c2ccc(N(C)C)cc2)c2ccccc2n1,active: 3.66 µM,–
CC(C)c1ccc(CNc2nc(NCC3CC3)nc3ccsc23)cc1,active: 23.1 µM,–
CC(NCCC(Cc1ccccc1)c1ccco1)c1ccccc1 (stereo unspecified),inactive,–
CCOc1ccc(NC(=O)Nc2cccc(C(=O)O)c2)cc1,"inconclusive [cytotoxic, single point]",–
CSc1ncc2c(=O)[nH]c(-c3ccccc3)nc2n1,"inconclusive [rising, single point]",–

SMILES,Potency,"activity, negative = less viability"
Cc1cc(C)c(CN2CCN(CCCn3cnc(C(=O)Nc4ccc(C)c(C)c4)n3)CC2)c(C)c1,"inconclusive [cytotoxic, single point]",–
CCCN1CCN(C(=O)c2noc3c2COc2ccc(C)cc2-3)CC1,inactive,–
C[C@H]1CN([C@@H](C)CO)C(=O)CCCn2nncc2CO[C@H]1CN(C)S(=O)(=O)c1cccs1,inactive,–
COC(=O)c1ccc(-n2c(C)cc(C(=O)COC(=O)CNS(=O)(=O)c3ccc(C)cc3)c2C)cc1,"inconclusive [rising, single point]",–
CC(C)(C)CC(=O)Nc1nc(C(N)Cc2ccc(C(F)(F)F)cc2)cs1 (stereo unspecified),active: 16.4 µM,–
Cc1cccn2c(=O)c3cc(C(=O)NCCN4CCOCC4)c(=N)n(CCCN4CCOCC4)c3nc12,inactive,–
COc1cccc(-c2nn(C)c3sc(C(=O)NCCCN(C)Cc4ccccc4)cc23)c1,active: 18.4 µM,–
Cc1ccc(C(C(=O)NC2CCCC2)N(C(=O)CNC(=O)c2ccco2)c2ccccc2)o1 (stereo unspecified),inactive,–
COc1ccc(Cl)cc1NC(=O)c1noc2c1CCCC2,inactive,–
O=C(/C=C/c1ccc(O)c(O)c1)OCCc1ccccc1,"inconclusive [cytotoxic, single point]",–
C[C@@H]1CN([C@@H](C)CO)C(=O)CCCn2nncc2CO[C@H]1CN(C)Cc1ccncc1,inactive,–
Oc1ccc(-c2nccc(-c3ccc(Cl)cc3)n2)cc1,"inconclusive [cytotoxic, single point]",–
Cc1cc2ccccn2c1C(=O)c1ccc([N+](=O)[O-])o1,"inconclusive [cytotoxic, single point]",–
Cc1cc(Cl)c(S(=O)(=O)N2CCCCCC2)cc1OCC(N)=O,inactive,–
O=c1[nH]c(NCCO)c(N=Cc2ccccc2)c(=O)[nH]1,"inconclusive [rising, single point]",–
CCc1ccc(CNC(=O)C2CCN(S(=O)(=O)N3CCC4(CC3)OCCO4)CC2)cc1,inactive,–
CCCCN(CCCC)C(=S)N/N=C/c1c(C)[nH]n(-c2ccccc2)c1=O,"inconclusive [cytotoxic, partial curve]",–
COc1ccc(NS(=O)(=O)c2ccc(O)c(NC(=O)c3ccc(S(=O)(=O)N4CCCCCC4)cc3)c2)cc1,"inconclusive [cytotoxic, single point]",–
COc1ccc(S(=O)(=O)NC2CC(C)(C)NC(C)(C)C2)cc1C(C)C,inactive,–
CCCN(CCC)S(=O)(=O)c1cc2c3c(c1)CCN3C(=O)CC2,inactive,–
O=C(/C=C/c1ccc(Cl)cc1Cl)n1cccn1,"inconclusive [cytotoxic, single point]",–
COc1ccc(N(CC(=O)O)S(=O)(=O)c2ccc(C)cc2)cc1Cl,inactive,–
COc1ccc(C(CNC(=O)C(CCSC)NC(=O)c2ccccc2Cl)N2CCCCC2)cc1 (stereo unspecified),inactive,–
Cc1ccc(NC(=O)CSc2nc(=O)n(CCCN3CCOCC3)c3c2CCCC3)cc1,inactive,–
Cc1cc(N2CCN(C)CC2)nc2ccc(NC(=O)c3ccccc3F)cc12,inactive,–
CN(CC(=O)N/N=C/c1ccc(F)cc1)S(=O)(=O)c1ccccc1,inactive,–

SMILES,Potency,"activity, negative = less viability"
N#Cc1cccc(C=C(C(=O)c2ccccc2)c2ccccc2)c1,active: 26.4 µM,–
Cc1cccc(OCCCCc2c(C)n[nH]c2C)c1C,"inconclusive [cytotoxic, single point]",–
COCCn1cc(-c2csc(N)n2)c2ccccc21,inactive,–
O=c1[nH]c(C2CCN(S(=O)(=O)Cc3ccccc3)CC2)nc2c1nnn2Cc1cccc(Cl)c1,"inconclusive [cytotoxic, single point]",–
COc1ccc(OC)c(CN2CCN(C(=O)c3cc4ccccc4cc3O)CC2)c1,inactive,–
O=c1cc(-c2ccc(O)cc2)oc2ccc3ccccc3c12,"inconclusive [cytotoxic, single point]",–
CC(C)(C)c1ccc(CC(=O)N2CCC2(C)C(=O)NCc2ccc(Cl)cc2)cc1 (stereo unspecified),"inconclusive [cytotoxic, single point]",–
Cc1cc(C(=O)CCl)c(C)n1-c1cccc([N+](=O)[O-])c1,"inconclusive [cytotoxic, single point]",–
CCc1nc2c(OCc3ccccc3)cccn2c1N(C)C(=O)c1ccco1,inactive,–
CCc1nonc1NC(=O)c1oc2cc(C)c(C)cc2c1C,"inconclusive [cytotoxic, single point]",–
O=C(NC(=S)Nc1ccc(NC(=O)c2cccs2)cc1)c1ccco1,inactive,–
CCOC(=O)C1CCN(c2ccc(Cl)nn2)CC1,"inconclusive [rising, partial curve]",–
O=C(CCc1ccccc1)NNC(=O)Nc1ccc(Br)cc1,inactive,–
CCN1CCN(c2ccc(S(=O)(=O)N3CCCCC3)cc2NC(=O)c2cccc(Cl)c2)CC1,"inconclusive [cytotoxic, partial curve]",–
Cc1cc(OCC(=O)Nc2ccccc2N2CCOCC2)c(C(C)C)cc1Cl,inactive,–
COc1ccc(S(=O)(=O)Cc2ccc(C(=O)NCCc3ccc(S(N)(=O)=O)cc3)o2)cc1,–,inconclusive: 32.4%
COc1cc(C(=O)N2CCN(c3cccc(C)c3C)CC2)cc(OC)c1OC,active: 1.16 µM,–
Cc1cc(-c2csc3nc[nH]c(=S)c23)cc(C)c1C,active: 16.4 µM,–
N#Cc1c(N2CCN(C(=O)c3ccccc3)CC2)nc(-c2ccccc2)c2c1CCCC2,"inconclusive [cytotoxic, single point]",–
COc1ccc(C(=O)NCc2nnc(SCC(=O)Nc3nc4ccccc4s3)o2)cc1,"inconclusive [cytotoxic, single point]",–
CN(C)c1nc(N)nc(CSc2nnnn2-c2cccc3ccccc23)n1,"inconclusive [cytotoxic, full curve]",–
COc1ccc(Nc2nc(N)nc(CCl)n2)cc1,active: 1.46 µM,–
CCOC(=O)C1(CCCc2ccccc2)CCN(C(=O)COC)CC1,–,inconclusive: 19.1%
O=C1N=C(N2CCOCC2)S/C1=C/c1cc2c(cc1[N+](=O)[O-])OCO2,"inconclusive [cytotoxic, single point]",–
